# Over roughly 33,000 sequences, “E-score (-0.5 to 0.5)” has its median near -0.016; the highest 2% begin near 0.31. Some of the results follow.
# Target: Cst6 (UniProt P40535)
# Assay: PBM E-score (8-mer binding enrichment) (E-score (-0.5 to 0.5)); higher = stronger / more preferred TF binding; most listed sequences are background and not binding sites
# Settings: protein concentration: 200 nM; construct: GST-DNA-binding domain
# Method in brief: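 Detection of bound protein used fluorescent anti-GST, with scans normalised by masliner. The proteins were GST-tagged yeast transcription factors applied at about 100-200 nM to universal all-10-mer Agilent arrays made double-stranded by primer extension. Each ungapped eight-base word, pooled with its reverse complement, was scored with an E-score from the Universal PBM Analysis Suite.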
row,Sequence,PBM E-score
1,CGGGGAAC,-0.0966
2,CCAAACTC,-0.0716
3,AACGCTCG,0.112
4,GATGGGGC,-0.12
5,CGACCTAC,-0.262
6,ACCCGCGC,0.172
7,CCGGATAA,-0.0352
8,GGGTTCAA,-0.14
9,ATTTTTCG,0.244
10,CTCTCCCA,-0.296
11,GTTGGAGA,-0.0327
12,ACGGCAGG,-0.19
13,ATTTACTA,0.107
14,GTATATGA,0.217
15,ACGGGAAT,-0.116
16,CTATTGTC,0.0433
17,ACCAAGTA,0.11
18,TCCTCTCA,-0.21
19,GATGGAAA,-0.0381
20,GTTGTGAA,0.128
21,CGAGTACC,-0.158
22,AGGCGCAC,0.057
23,CACTTCAA,0.0667
24,AATGATAC,0.316
25,CATTTGCC,-0.144

row,Sequence,PBM E-score
1,ATACTGTA,0.0985
2,GACGTCTA,0.182
3,ACAACCGG,-0.134
4,TTCTGAAA,0.106
5,AAACAACT,0.0816
6,CGGTCAGC,-0.205
7,AAATTAGC,0.153
8,CACCTCCC,-0.206
9,GTATATCA,0.233
10,GCCGAGCA,-0.177
11,AAAGAGGA,-0.215
12,AGAAGGGA,-0.314
13,GGAGGTTA,-0.264
14,ACGGCCGC,0.149
15,GGAAGGGA,-0.319
16,CTCTAGGC,-0.143
17,CCGGACGG,-0.109
18,GGAGACCA,-0.246
19,CTGCGTGC,-0.0523
20,CCCTGCTC,-0.31
21,CTTTACCC,-0.126
22,CATATTCA,0.213
23,AGGGTGAA,-0.167
24,CGGCATGA,0.235
25,CACTGATC,-0.0646

row,Sequence,PBM E-score
1,CGCCCTTA,-0.209
2,CCTGAAAC,0.0564
3,ACCCATTA,-0.0004
4,GCGTATCC,-0.225
5,CAAGTGTG,-0.0332
6,AAGGGGCT,-0.0742
7,GTGCTTGA,-0.108
8,CGAACACG,0.08
9,CCCACGCG,-0.265
10,GGCTTGGA,-0.226
11,CCGATGCG,-0.185
12,CGGTACGA,-0.051
13,AGTCGTAT,-0.0183
14,CGACCCTA,-0.273
15,CTTAAATA,-0.00676
16,GGTGACCA,-0.0455
17,GGCGGACA,-0.203
18,ACTCCCCG,-0.0792
19,AATTGCCG,0.123
20,GCCAGTTA,-0.0579
21,CGCGTTTA,0.107
22,AAGGAGAC,-0.192
23,AGGTAGCA,-0.141
24,GGTAATAA,0.247
25,AGAGTCAA,-0.198

row,Sequence,PBM E-score
1,AGCAATAT,0.055
2,CTAATTAC,0.243
3,CGAAGCCG,-0.201
4,ACATGCTA,-0.174
5,CATGGGAA,-0.0251
6,ATGTACGG,0.0265
7,CTTGTGGA,-0.0842
8,GATGGTAA,-0.0499
9,GACAGAGA,-0.152
10,CGACGTCG,-0.0227
11,GATTATCA,0.109
12,AGTTGGCG,0.00931
13,CGAAGTCG,0.132
14,ACCATAGG,-0.168
15,GAGTTAGA,-0.0254
16,AATAAAAA,0.255
17,ATCGGTGG,-0.00306
18,ATCCGATG,0.154
19,CAGAGCAC,-0.0324
20,GGGGGCAC,-0.302
21,GATCTGGC,0.0213
22,CGCACGCG,-0.109
23,GAATGGGC,-0.14
24,ACTAAAGG,-0.0814
25,ATTCACAA,0.221

row,Sequence,PBM E-score
1,CCCCTTCC,-0.246
2,GTCCCCTA,-0.288
3,CATACGAA,0.154
4,CTTCCCGC,-0.0811
5,AGTGAACT,-0.0632
6,AATAAATC,0.114
7,CCTAATCC,-0.175
8,AAAAGGCG,0.179
9,GATAAGGC,0.0661
10,GAGTTGAA,-0.116
11,CGAAGGCC,-0.268
12,AGAGCGGG,-0.216
13,AGGGCCCA,-0.355
14,ACCCATCA,-0.0348
15,AACTGGCT,-0.205
16,CACCCTAC,-0.124
17,CTGGCGCC,0.0343
18,CGTGATCC,-0.029
19,CTGAGCTC,-0.0539
20,CGGGGAGA,-0.285
21,CCCTAAAG,-0.185
22,GCATATAA,0.166
23,CTCGCTCA,0.0834
24,CTGCCTTA,-0.117
25,ATCGGATA,0.115

row,Sequence,PBM E-score
1,CACATTGC,-0.0114
2,CTTCATTC,0.0742
3,ATATCTGG,-0.194
4,ACTACGAC,-0.05
5,CTCCGCAG,-0.225
6,ATACGTGG,0.176
7,CGTAGAAG,0.105
8,GGTTTGAC,-0.0255
9,TAAATCCA,0.0464
10,GGAAGCAC,-0.0203
11,AGGGGAAT,0.0579
12,CGACTCAC,-0.305
13,CATATCCC,0.0321
14,CTAGAGAA,-0.0852
15,CTTAGAGA,-0.0352
16,CGCAAAAG,0.00977
17,TATTGCAA,0.11
18,CGTACCTA,-0.059
19,CAAAAGAC,0.13
20,ACTATATG,0.0805
21,TTAGTGAA,0.0552
22,AGAATCGG,0.0442
23,CAAGGCCC,-0.245
24,GAGGATGC,-0.0884
25,GATGCCCA,0.0611

row,Sequence,PBM E-score
1,TACCAGGA,-0.146
2,AACCTCAG,-0.105
3,AAGCAAGG,-0.0871
4,ATGTAGCA,-0.124
5,TAAAGTCA,0.0375
6,AGCTCACA,0.0937
7,CACTAGAC,0.0077
8,ACTGCTAA,-0.183
9,ATAGTGCA,-0.018
10,GGATCCTA,-0.199
11,AGCTTTAT,0.0216
12,AAATAGCA,0.0395
13,GACATTGA,0.096
14,CCATCCAG,-0.232
15,CTCGCGGA,-0.13
16,ATTTCCAA,-0.0596
17,AGCCATGC,-0.115
18,AGATGGGG,-0.244
19,AACTTAGA,0.154
20,ACGAGCGT,-0.138
21,CGTCTGGA,-0.23
22,ACCCCTAA,-0.181
23,ACAAAGGT,0.15
24,ACAAACGT,0.132
25,ACACACAA,0.197

row,Sequence,PBM E-score
1,CGAGCGCC,-0.215
2,CGAGGACC,-0.14
3,AGCTGAGG,-0.147
4,CCGGTTCG,-0.248
5,GATGCAGA,0.0354
6,CTAACGAG,-0.0222
7,CCTGAACG,-0.0678
8,CCAACCGA,-0.0928
9,AGGCCCCA,-0.27
10,ACGTAGAA,0.224
11,TGAATCAA,0.15
12,ATCATCTC,0.216
13,GTTCAACA,0.028
14,AAACACCA,0.0796
15,ACGGCCCA,-0.0617
16,AGTTTCCG,0.0164
17,CAGTCTAG,-0.319
18,ATTGGGCA,-0.0812
19,CTAGGTCA,0.109
20,ATCGCTGG,-0.217
21,GGTTCCAC,-0.256
22,CGCCCGGA,-0.101
23,CACTGCAA,0.187
24,CCATAAGG,-0.0877
25,TAAGGTCA,0.0174

row,Sequence,PBM E-score
1,AATCGGCG,0.113
2,ACGTCGCT,0.0297
3,AGGACTTG,-0.308
4,GCGAAGGA,-0.169
5,GTATAGGA,-0.169
6,GCCCCAGC,-0.217
7,AAGTTCCC,-0.229
8,CCCATCAA,0.0258
9,TGCTGCCA,-0.0603
10,CACCTTCC,-0.105
11,ATTCCACA,0.165
12,AAAGTCTA,0.0819
13,GAGAACAA,0.254
14,ACTGACGC,0.243
15,AGCCTGTG,-0.228
16,ATCTCTAC,0.113
17,CACTGCCG,0.135
18,GACTTTAA,-0.101
19,GTCATGCA,0.36
20,CCCCCACG,-0.242
21,ACATCGGA,-0.00933
22,CTTCCTGC,-0.21
23,CAGTGCTA,-0.154
24,AAATTAAG,0.0224
25,CTATAACC,-0.064

row,Sequence,PBM E-score
1,CCATGCGG,0.049
2,AGTTATTA,0.195
3,AAGTAGCA,0.0243
4,CCTGTCAG,-0.195
5,ACTGCGCC,0.0369
6,ATGGAACC,-0.143
7,ACGGGTCT,-0.148
8,AGGATTTC,0.0194
9,AAAATACA,0.0702
10,CGAATAGC,-0.00858
11,GAAGGGCA,-0.0405
12,CAGTCACC,-0.113
13,ACCTTGTG,-0.0071
14,ATAACAAA,0.303
15,AGACAGGG,-0.28
16,ACAACTTA,0.072
17,GTCCGTTA,-0.114
18,AAGATGCC,0.0416
19,CTCCAAAG,-0.104
20,AGGGGAAC,-0.359
21,ACTTTAGC,-0.0587
22,CCTACTCG,-0.171
23,CATAAACC,0.0467
24,AGGTATGG,-0.179
25,ATGTCTAC,-0.106

row,Sequence,PBM E-score
1,AAAAAACT,0.14
2,GATACATC,0.126
3,ATGTTGGA,0.143
4,GCTTTCCA,0.0531
5,GGTTTTCA,0.132
6,ATAATGCC,0.167
7,TACTCTGA,0.0538
8,CATTTCCC,0.136
9,CGTCCTAA,-0.17
10,GCGTGCAC,-0.0584
11,CGCGTTAC,0.063
12,GACCTAGA,-0.094
13,CATAACGG,-0.00203
14,GTTAAAAC,-0.0213
15,TTCTAAAA,0.161
16,GCACGAAC,0.111
17,GGAATCAC,0.0293
18,CCATCTAA,0.0382
19,AGAGCACG,0.00533
20,AACACTAA,0.104
21,AACAACTG,0.0881
22,GGAAATGA,0.195
23,GATAAGGA,0.0441
24,AATCACGT,0.296
25,CGCTAGCA,-0.169

row,Sequence,PBM E-score
1,ATGTCGGG,0.038
2,CAGATCGA,-0.0884
3,AGGCCGAG,-0.16
4,TGGCTGAA,-0.0764
5,ACCACCTA,-0.169
6,CACTGAAC,0.028
7,ACGCGGTC,-0.0683
8,ATCCCTAG,-0.0881
9,CTGACGCC,0.119
10,CTGCCCCC,-0.303
11,AAAGGTAG,-0.0954
12,ACTCATAA,0.0843
13,CTCTAAAG,-0.0822
14,AGCTCATG,-0.0133
15,ACGCAACC,0.187
16,AAGGGCAC,0.0638
17,GCATTGCA,0.0618
18,CGGAGTCC,-0.111
19,CGCGGCTA,0.274
20,CATAAATA,0.154
21,CGGTGTAC,-0.129
22,CTGAAAAC,0.0944
23,ATACTGAC,0.142
24,TCGAACGA,0.101
25,GAGGTATC,-0.141

row,Sequence,PBM E-score
1,CCAAATAG,-0.0451
2,CCCACGAG,-0.326
3,ACGTGGAG,-0.0857
4,AGACTGTC,-0.204
5,CCGGCTAC,-0.0159
6,ATGCCCTA,-0.0628
7,CCTCTTCG,-0.184
8,CTTGCCTC,-0.158
9,GCGATGGA,0.00934
10,AGTATATA,0.348
11,CGCCCCAC,-0.017
12,AGGACTCC,-0.357
13,AGCTTGCC,-0.0982
14,AACGAGCC,0.0634
15,CCACTAGA,-0.149
16,GTTAGGCA,-0.0663
17,CGCAATCC,0.107
18,AATTACTC,0.236
19,ACTGTCAG,-0.0286
20,ACCGTGTG,-0.0447
21,GAGGTCTA,-0.122
22,ACTCCTTC,-0.234
23,AGCTAGAG,-0.179
24,CGGCTTTC,0.133
25,ACCCCTCT,-0.279

row,Sequence,PBM E-score
1,CGGGTCGA,-0.304
2,ACATGTGC,-0.012
3,ACGGATTG,0.0767
4,GATGCTGC,-0.256
5,AAAGGGTG,0.0199
6,CCTACCGA,-0.172
7,GACCTCTC,-0.183
8,CTCGGAAG,-0.117
9,AACTACCG,-0.0487
10,CTAGAGAC,-0.289
11,GGGGTTGA,-0.0938
12,GATAAACC,0.137
13,AACATCGT,-0.0624
14,CGTTGGCA,-0.112
15,ATCAGTAC,0.086
16,ACGGGCAA,-0.0753
17,CAGACCCG,-0.236
18,CTACTATC,0.143
19,CAATTCAG,-0.0484
